This is one part of the list.
What follows are sequences tested against T1, OsWOX13 (Oryza sativa, UniProt Q5QMM3 1-267) (assay: protein-binding microarray (RPBM); PBS, 2% BSA, 51.3 ng/ul salmon testes DNA, 50 uM zinc acetate, 200 nM TF, 25 C, 1 h; high values mean tight binding). Settings: protein: recombinant; tags: N-terminal polyhistidine and DsRed monomer fusion (pET32a); label: CyDye5-dUTP incorporated in the synthesized complementary strand; 3' TTTTT single-stranded linker to array surface; dsDNA, one strand shown.
T1 sequence: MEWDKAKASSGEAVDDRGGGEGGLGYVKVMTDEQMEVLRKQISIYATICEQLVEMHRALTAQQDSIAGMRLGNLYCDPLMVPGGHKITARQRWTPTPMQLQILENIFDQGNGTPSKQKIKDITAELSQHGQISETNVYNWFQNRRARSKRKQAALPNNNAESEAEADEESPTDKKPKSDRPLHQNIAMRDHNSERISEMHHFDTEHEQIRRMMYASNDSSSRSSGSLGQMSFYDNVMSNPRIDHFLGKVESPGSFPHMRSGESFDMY
Procedure, shortened: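 Binding signal is defined as the fluorescence intensity of each feature in arbitrary units, read on an Axon 4000B scanner. Transcription factors with N-terminal polyhistidine and DsRed fusions came from E. coli BL21-CodonPlus and were purified on Ni–NTA. They were incubated at 200 nM for 1 h at 25 °C on a custom Agilent array that had been made double-stranded with Cy5-dUTP, with 50 µM zinc acetate present, and the array was washed.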

Sequence | binding signal
ATTATATTGATCAATGACTCTGCTACTACTGCTCCCATATCGGAGTCACCTAGTGCAG | 15600 fluorescence intensity (a.u.)
GACGATTTGAAGATTACTGAAATTCACATGGCATTATGGTCGGAGTCACCTAGTGCAG | 3920 fluorescence intensity (a.u.)
TTAACAATTGGATTTGATATGATTGTGCTTTGTGATGTATCGGAGTCACCTAGTGCAG | 13100 fluorescence intensity (a.u.)
CTAATTGATAAGTGTAAAGATATTGTGAGCAACTACAATTCGGAGTCACCTAGTGCAG | 42700 fluorescence intensity (a.u.)
CTTGACGGGCTAGGGCCATAACTGAGCATTGCCACGTCAGCGGAGTCACCTAGTGCAG | 5460 fluorescence intensity (a.u.)
TGCTAAATTGCTAATACATACCTCTATGTTGTTGTGTTTTCGGAGTCACCTAGTGCAG | 18500 fluorescence intensity (a.u.)
CTAATTGGGAGATGGAGCTCGAATTGAGTTCTTGGTGGGGCGGAGTCACCTAGTGCAG | 12400 fluorescence intensity (a.u.)
ACCACCTCTAATGAAAGGGTGATTGCAACCACTCATCCATCGGAGTCACCTAGTGCAG | 9090 fluorescence intensity (a.u.)
TAATTAGATTGTTAAACCTTAATTGATCTATAGGACCAAACGGAGTCACCTAGTGCAG | 28700 fluorescence intensity (a.u.)
TTAAAACTAATACTTAATTAATTATGCGCTAATTTATGTTCGGAGTCACCTAGTGCAG | 22000 fluorescence intensity (a.u.)
GATCAGTGCAATTATTGACTTTTCCTTGTGAAATGAAATTCGGAGTCACCTAGTGCAG | 3670 fluorescence intensity (a.u.)
AATAATTACAACTACAATTTAATAACGTGAAAGTATTCTACGGAGTCACCTAGTGCAG | 11900 fluorescence intensity (a.u.)
TTTGATTTGCAGGTTTAGGTCCAGGTACCCTTGTGGGTTCCGGAGTCACCTAGTGCAG | 22600 fluorescence intensity (a.u.)
AGTGGGGATAGGATGGGGAATTGAGGAAGGAACTCCCTCCCGGAGTCACCTAGTGCAG | 3360 fluorescence intensity (a.u.)
GATAATTGTCAAACTAAAAGAGATAAATAATTAAATTCCCCGGAGTCACCTAGTGCAG | 20400 fluorescence intensity (a.u.)
AAAACAGTTTGATTAGCTTTCTGTCGAATCTGTCATGCATCGGAGTCACCTAGTGCAG | 16500 fluorescence intensity (a.u.)
TGCAAATTGCTGATTTGCTCATTGGTTAGAAAAGGACATCCGGAGTCACCTAGTGCAG | 24400 fluorescence intensity (a.u.)
TATCATTTGATTTATTGTTAAATATACTTTCATGTATACACGGAGTCACCTAGTGCAG | 12500 fluorescence intensity (a.u.)
TATGATTGTGTTTTATGATGAATTGTTGACCATTGAGACTCGGAGTCACCTAGTGCAG | 39300 fluorescence intensity (a.u.)
TATACACGCAATTAGATATATTAGTCTGAACGAGGGCATCCGGAGTCACCTAGTGCAG | 3540 fluorescence intensity (a.u.)
GCATTCTCTTTCCAACCAATCACAACCCTTCACCATTCACCGGAGTCACCTAGTGCAG | 3440 fluorescence intensity (a.u.)
CCATATTTAATGGATAGATTTATATTGCCATATGGATAATCGGAGTCACCTAGTGCAG | 19700 fluorescence intensity (a.u.)
TTATTAATTGATAAAATATAGAAATATTGATTTATTGTTTCGGAGTCACCTAGTGCAG | 52500 fluorescence intensity (a.u.)
